Experimental data taken from the supplement of paper PMC4166925.
± gives the standard deviation of the averaged measurements. The full ranking holds about 33,000 sequences; the median of “E-score (dimensionless, -0.5 to 0.5)” is about -0.046, and the highest 2% start at about 0.36. Some of the results follow.

system: T1, SpTbr T-box DNA-binding domain (GST fusion); assay: PBM E-score of 8-mer (E-score (dimensionless, -0.5 to 0.5)); Tbr is Tbrain of the sea star Patiria miniata (Pm) or the sea urchin Strongylocentrotus purpuratus (Sp); higher = stronger binding preference; most listed sequences are background and not binding sites; conditions: the construct has about 5 more residues each side
T1 sequence: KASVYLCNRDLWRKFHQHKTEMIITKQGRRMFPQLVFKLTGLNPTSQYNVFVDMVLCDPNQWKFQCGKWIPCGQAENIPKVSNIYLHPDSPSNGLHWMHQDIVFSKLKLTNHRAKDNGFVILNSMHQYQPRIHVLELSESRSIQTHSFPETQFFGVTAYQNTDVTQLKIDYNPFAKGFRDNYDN
How it was run: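 Each ungapped 8-mer received an enrichment E-score from the Universal PBM Analysis Suite, averaged over duplicate arrays. The proteins were Tbr T-box DNA-binding domains, covering the whole T-box plus about five flanking residues, fused to GST and expressed in BL21 E. coli at 20 °C before glutathione affinity purification. Universal Agilent oligonucleotide arrays were made double-stranded by primer extension and incubated with 200 nM protein in PBS (pH 7.5). The arrays were then scanned and quantified, and every 8-mer was scored from probe intensities.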

| Sequence | PBM E-score of 8-mer |
| --- | --- |
| CGAGGAAG | -0.0709 ± 0.015 |
| AGTGCGTA | 0.0849 ± 0.013 |
| GAAGGATC | -0.0471 ± 0.023 |
| ACCACGTA | -0.00341 ± 0.0051 |
| CGTGAGCA | 0.105 ± 0.039 |
| CAATACCG | -0.201 ± 0.023 |
| ACTTCTCA | 0.118 ± 0.074 |
| GACAGTGC | 0.152 ± 0.025 |
| AGCATGGG | -0.214 ± 0.024 |
| GAATGAGA | -0.132 ± 0.063 |
| AATGTGCA | 0.0581 ± 0.05 |
| TTGCGAAA | 0.33 ± 0.038 |
| AAGTTTCC | -0.00849 ± 0.04 |
| AAGCAAGC | -0.16651 ± 8.5e-05 |
| GTAAATAC | -0.229 ± 0.044 |
| AGTGAGCG | 0.155 ± 0.072 |
| GGAGTGCA | -0.153 ± 0.0039 |
| GAAAAGTA | -0.0537 ± 0.086 |
| AGAGCTAG | -0.211 ± 0.02 |
| CTAGAGGA | -0.172 ± 0.0027 |
| GTAGTCAC | 0.135 ± 0.036 |
| ACTTCGAT | 0.0203 ± 0.036 |

| Sequence | PBM E-score of 8-mer |
| --- | --- |
| CGCTACTC | 0.17 ± 0.036 |
| AAGGGGTG | 0.251 ± 0.024 |
| GCCTGCAA | -0.0777 ± 0.016 |
| AGTGTAGC | 0.129 ± 0.0052 |
| GATCTGCC | 0.0697 ± 0.024 |
| AAAGAATC | 0.0635 ± 0.031 |
| CCGTTCCC | 0.203 ± 0.018 |
| ACAGCAAT | 0.122 ± 0.11 |
| GAGCAGCA | -0.138 ± 0.11 |
| ATACGATC | -0.105 ± 0.096 |
| CGATGAAC | -0.0642 ± 0.057 |
| ACAAGTGG | 0.355 ± 0.012 |
| CCTCGCGA | 0.306 ± 0.0057 |
| AGGCGGTC | -0.0226 ± 0.069 |
| ATCCGTAC | -0.21 ± 0.02 |
| ACATGCAA | -0.103 ± 0.0033 |
| CTTAAACC | -0.14242 ± 4.9e-05 |
| GACAATCA | 0.00843 ± 0.089 |
| CACGTGGC | 0.212 ± 0.068 |
| CCTGTTTA | -0.01 ± 0.077 |
| CGAGTAAG | 0.0168 ± 0.044 |
| GGACCACC | -0.0977 ± 0.022 |

| Sequence | PBM E-score of 8-mer |
| --- | --- |
| GGCCCACA | -0.0786 ± 0.008 |
| CTTCAAAC | 0.0597 ± 0.014 |
| AGCTAGTA | -0.194 ± 0.0013 |
| GCGATGAA | 0.208 ± 0.0079 |
| AGTATTTA | 0.00333 ± 0.019 |
| AGCTAGCT | 0.0778 ± 0.066 |
| AACACGGT | 0.0832 ± 0.0046 |
| GAGGAGGC | -0.0211 ± 0.011 |
| CTGAAACA | -0.166 ± 0.025 |
| ATGGTAGA | -0.116 ± 0.0076 |
| CTTTCTTC | -0.11567 ± 4.2e-05 |
| CGATGTAG | -0.15 ± 0.047 |
| AACAAATT | 0.0858 ± 0.044 |
| CTAACGGA | 0.0446 ± 0.047 |
| GGAACATA | -0.155 ± 0.12 |
| AGAAATAC | -0.0925 ± 0.0089 |
| AGGATACG | 0.173 ± 0.038 |
| ATTTTACG | -0.107 ± 0.06 |
| CGAATGAG | -0.019 ± 0.0085 |
| ACTGACAT | 0.0849 ± 0.0046 |
| CCTCTAAC | -0.133 ± 0.015 |
| GGCTAAAA | -0.216 ± 0.033 |

| Sequence | PBM E-score of 8-mer |
| --- | --- |
| AGACGAGA | 0.0548 ± 0.013 |
| ATAGATCC | -0.188 ± 0.042 |
| TAATAACA | 0.0425 ± 0.098 |
| GCCATGTA | -0.126 ± 0.062 |
| ACGATCCA | -0.15 ± 0.031 |
| CAGTAATC | 0.115 ± 0.029 |
| AGACAAAG | -0.0785 ± 0.006 |
| AACTTTAT | -0.0448 ± 0.0037 |
| CCACTCCG | -0.0945 ± 0.094 |
| GTATTGGA | -0.221 ± 0.029 |
| AAGGTTGG | -0.101 ± 0.012 |
| GATTGAGA | -0.182 ± 0.03 |
| CTTAGTCA | -0.135 ± 0.054 |
| AAGCTACG | -0.151 ± 0.027 |
| AACGATAC | 0.0271 ± 0.019 |
| GCATCGCA | 0.0447 ± 0.0047 |
| AATTAGAT | -0.19265 ± 2.1e-05 |
| GCCGAAAC | -0.239 ± 0.063 |
| GATAGTCC | -0.134 ± 0.004 |
| GCAATGCC | -0.174 ± 0.032 |
